Source: PMC5726920 (Nature chemical biology, 2017)

Target: the molecule itself
Test: native MS

B1: human alpha enolase (enzyme)
chain: not shown
stoichiometry N: 2
